We go through 28 compounds from the antibiotic and cytotoxicity screens of Wong et al. (2023).

Assay [1] has as its system HSkMC (human skeletal muscle cells). As to the kind of experiment: cytotoxicity call (relative viability < 0.9). To be noted: 10 µM.
Assay [2] concerns HepG2. As to the kind of experiment: cytotoxicity call (relative viability < 0.9). To be noted: 10 µM.
Assay [3] concerns S. aureus RN4220. The assay can be described thus: growth inhibition call (relative growth <= 0.2). To be noted: 50 µM.

SMILES strings stand for the structures. Some of the results follow.

In the case of `C[C@@H]1CN([C@@H](C)CO)S(=O)(=O)c2ccc(C#Cc3ccccc3F)cc2O[C@H]1CN(C)CC1CC1`, the cytotoxicity call in assay [1] and in assay [2] was “inactive” in each case. The growth inhibition call in assay [3] is “inactive”.

Take `C=C/C=C/[C@@H]1C(=C)CN([C@@H](Cc2ccccc2)C(=O)OC)[C@H]1[C@@H](O)CCn1cc(CCC(=O)NO)nn1`: the cytotoxicity call in assay [1] and in assay [2] was “inactive” in each case. Besides, the growth inhibition call in assay [3] was “inactive”.

As to `COc1ccc(NC(=O)Nc2ccc3c(c2)C(=O)N([C@H](C)CO)C[C@@H](C)[C@H](CN(C)S(=O)(=O)c2ccccc2)OCCCC[C@H](C)O3)cc1`, the cytotoxicity call in assay [1] was “inactive”. Besides, the cytotoxicity call in assay [2] is “active”. For the same compound, the growth inhibition call in assay [3] was “inactive”.

Consider `CC1=C2C/C=C(\C)[C@H](O[C@H]3O[C@@H](CO)[C@@H](O)[C@@H](O)[C@@H]3O)C/C=C(\C)C[C@@H]2OC1=O`, for which the cytotoxicity call in assay [1] and in assay [2] was “inactive” throughout. Further, the growth inhibition call in assay [3] is “inactive”.

For `NS(=O)(=O)c1ccc2c(c1)OCCO2`, the cytotoxicity call in assay [1] and in assay [2] was “inactive” in each case. In addition, the growth inhibition call in assay [3] was “inactive”.

On to `Cc1ccc(S(=O)(=O)Nc2cccc3c2O[C@H](CN(C)C(=O)NC(C)C)[C@H](C)CN([C@H](C)CO)C3=O)cc1`, for which the cytotoxicity call in assay [1] and in assay [2] was “inactive” throughout. Further, in assay [3], the growth inhibition call is “inactive”.

On to `O=C(C[C@@H]1CC[C@@H]2[C@H](COC[C@H](O)CN2Cc2cccc(C(F)(F)F)c2)O1)NCCc1ccncc1`, for which the cytotoxicity call in assay [1] and in assay [2] was “inactive” each time. The growth inhibition call in assay [3] was “inactive”.

As for `C[C@@H]1CN([C@@H](C)CO)C(=O)c2cccc(NC(=O)CCCCCC(=O)Nc3ccccc3N)c2O[C@@H]1CN(C)Cc1ccccc1`, the cytotoxicity call in assay [1] and in assay [2] was “inactive” throughout. Moreover, in assay [3], the growth inhibition call was “inactive”.

With `COC12C(COC(N)=O)C3=C(C(=O)C(C)=C(N)C3=O)N1CC1NC12` (centres undefined), the cytotoxicity call in assay [1] is “inactive”. Further, the cytotoxicity call in assay [2] was “active”. Also, in assay [3], the growth inhibition call is “active”.

On to `O=C(CN1CCOCC1)NCC[C@@H]1CC[C@H](NC(=O)c2ccc3c(c2)OCO3)[C@H](CO)O1`, for which the cytotoxicity call in assay [1] and in assay [2] was “inactive” each time. Further, in assay [3], the growth inhibition call was “inactive”.

With `C[C@H](CO)N1C[C@H](C)[C@H](CN(C)Cc2cccc(F)c2)Oc2cc(C#CC3CC3)ccc2S1(=O)=O`, the cytotoxicity call in assay [1] and in assay [2] was “inactive” each time. Besides, the growth inhibition call in assay [3] was “inactive”.

As to `O=C1CCCC2C3CCC[N+]4([O-])CCCC(CN12)C34` (centres undefined), the cytotoxicity call in assay [1] and in assay [2] was “inactive” each time. Further, the growth inhibition call in assay [3] was “inactive”.

As for `COc1ccc(CN(C)C[C@H]2OCCCC[C@@H](C)Oc3ccc(NC(=O)Nc4ccc(OC)cc4)cc3C(=O)N([C@@H](C)CO)C[C@@H]2C)cc1`, the cytotoxicity call in assay [1] and in assay [2] was “inactive” in each case. The growth inhibition call in assay [3] was “inactive”.

Take `COc1ccc(S(=O)(=O)Nc2ccc3c(c2)C(=O)N([C@H](C)CO)C[C@@H](C)[C@@H](CN(C)C(=O)NC2CCCCC2)OCCCC[C@H](C)O3)cc1`: the cytotoxicity call in assay [1] and in assay [2] was “inactive” in each case. In addition, in assay [3], the growth inhibition call was “inactive”.

Consider `Cc1ccc(S(=O)(=O)N(C)C[C@H]2OCCCC[C@@H](C)Oc3ccc(NC(=O)c4ccccc4)cc3C(=O)N([C@@H](C)CO)C[C@H]2C)cc1`, for which the cytotoxicity call in assay [1] and in assay [2] was “inactive” each time. Besides, in assay [3], the growth inhibition call was “inactive”.

`COc1ccc(CN(C)C[C@@H]2OCCCC[C@H](C)Oc3ccc(NS(=O)(=O)c4ccc(OC)cc4)cc3C(=O)N([C@@H](C)CO)C[C@@H]2C)cc1`: the cytotoxicity call in assay [1] was “inactive”. In assay [2], the cytotoxicity call is “active”. Moreover, the growth inhibition call in assay [3] was “inactive”.

Turning to `Cc1noc(C)c1NC(=O)N(C)C[C@@H]1Oc2cc(C#CCN(C)C)ccc2S(=O)(=O)N([C@@H](C)CO)C[C@@H]1C`, the cytotoxicity call in assay [1] and in assay [2] was “inactive” each time. Besides, the growth inhibition call in assay [3] was “inactive”.

On to `CCCCCCc1ccc(O)cc1O.Nc1c2ccccc2nc2ccccc12`, for which the cytotoxicity call in assay [1] was “inactive”. For the same compound, in assay [2], the cytotoxicity call is “active”. Moreover, in assay [3], the growth inhibition call is “inactive”.

Regarding `C[C@@H]1CN([C@@H](C)CO)C(=O)c2cc(NC(=O)Nc3ccc4c(c3)OCO4)ccc2O[C@@H](C)CCCCO[C@H]1CN(C)Cc1ccc(Cl)c(Cl)c1`, the cytotoxicity call in assay [1] and in assay [2] was “inactive” each time. In addition, the growth inhibition call in assay [3] was “inactive”.

Regarding `CN(C)CCCn1ccnc1-c1cnc(N)nc1`, the cytotoxicity call in assay [1] and in assay [2] was “inactive” each time. The growth inhibition call in assay [3] was “inactive”.

As for `O=C(C[C@@H]1CC[C@H]2[C@@H](COC[C@H](O)CN2S(=O)(=O)c2cccnc2)O1)NCc1ccc(Cl)c(Cl)c1`, the cytotoxicity call in assay [1] and in assay [2] was “inactive” throughout. The growth inhibition call in assay [3] is “inactive”.

Consider `O=C(O)CCCCCCC(=O)Nc1ccc([C@H]2O[C@@H](CSc3nc(-c4ccccc4)c(-c4ccccc4)o3)C[C@@H](c3ccc(CO)cc3)O2)cc1`, for which the cytotoxicity call in assay [1] and in assay [2] was “inactive” throughout. Besides, the growth inhibition call in assay [3] was “inactive”.

`CNC[C@@H]1Oc2ccc(NS(=O)(=O)c3cn(C)cn3)cc2CC(=O)N([C@@H](C)CO)C[C@H]1C`: the cytotoxicity call in assay [1] and in assay [2] was “inactive” each time. Further, the growth inhibition call in assay [3] was “inactive”.

In the case of `COc1ccc(S(=O)(=O)N(C)C[C@H]2Oc3ccc(NS(=O)(=O)c4ccc(C)cc4)cc3CC(=O)N([C@@H](C)CO)C[C@H]2C)cc1`, the cytotoxicity call in assay [1] and in assay [2] was “inactive” throughout. In addition, the growth inhibition call in assay [3] is “inactive”.

Consider `C[C@@H]1CCCCO[C@@H](CN(C)C(=O)Nc2ccc3c(c2)OCO3)[C@H](C)CN([C@H](C)CO)C(=O)c2cc(NC(=O)c3ccccc3)ccc2O1`, for which the cytotoxicity call in assay [1] and in assay [2] was “inactive” throughout. Also, the growth inhibition call in assay [3] was “inactive”.

For `NCC[C@@H]1CC[C@@H](NC(=O)C2CCCCC2)[C@H](CO)O1`, the cytotoxicity call in assay [1] and in assay [2] was “inactive” throughout. For the same compound, the growth inhibition call in assay [3] is “inactive”.

Regarding `COc1ccccc1OCC(O)COC(N)=O` (centres undefined), the cytotoxicity call in assay [1] was “inactive”. For the same compound, the cytotoxicity call in assay [2] was “active”. The growth inhibition call in assay [3] is “inactive”.

Regarding `COc1ccc(CN(C)C[C@@H]2OCCCC[C@@H](C)Oc3ccc(NC(=O)Nc4c(C)noc4C)cc3C(=O)N([C@H](C)CO)C[C@H]2C)cc1`, the cytotoxicity call in assay [1] and in assay [2] was “inactive” in each case. Moreover, the growth inhibition call in assay [3] was “inactive”.
